# ChEMBL document CHEMBL4888484, “Replenishing the malaria drug discovery pipeline: Screening and hit evaluation of the MMV Hit Generation Library 1 (HGL1) against asexual blood stage Plasmodium falciparum ,using a nano luciferase reporter read-out” (2022)
# Out of some 150,000 compounds screened, about 540 (0.36%) showed an effect of 50% or more. The list shows a part of the results.
# Test system: Plasmodium falciparum
# Test: Primary screen in NF54 nanoGlo assay, in single point, at 2uM, 72h; a lower Z score goes with more inhibition
# Format: functional, Erythrocyte
# Conditions: timepoint 72 hour
SMILES,% Inhibition [%],Z score
Cc1nc(NCc2nn(C)cc2Cl)sc1C,-3,0.39
O=C(NCCc1cccnc1)c1ccc2ccccc2n1,-8,1.41
Cc1ccc(NC(=O)Cn2nc3n(c2=O)CCCC3)cc1,-9,1.2
O=C(c1cnc(Nc2ccc(Cl)cc2)c(Cl)c1)N1C[C@H](O)C[C@H]1CO,0,-0.05
O=C(c1ccccn1)N1CCCn2nnnc21,-20,2.43
O=C(CCC(=O)N1CCC(O)CC1)NCCC1=CCCCCC1,-1,0.23
CNc1ncccc1C(=O)N1CC[C@]2(OC)CC[C@H](OC)C[C@H]12,1,-0.1
CN(C)CCN1C(=O)CC[C@@H]1CCNC(=O)c1c[nH]c2c(F)cccc2c1=O,15,-2.07
CC(C)C(=O)NS(=O)(=O)c1cccc2c1N=S=N2,32,-3.66
Cc1nnc2c(=O)n(CC(=O)N3CCCCC3)c3cccnc3n12,-16,2.07
CN1N=C(C(=O)NC(C)(C)CC(C)(C)C)CCC1=O,6,-0.51
C#CC(CC)(CC)NS(=O)(=O)c1ccc(F)cc1,-6,1.1
Cc1cscc1C(=O)N1CCN([C@H](C#N)c2ccccc2)CC1,-1,0.09
COc1cc(OC)cc(N(C)Cc2nc(N(C)C)no2)c1,-7,0.98
Cc1ccc(NC(=O)NCCN2CCO[C@@H](C)C2)c(N(C)C)n1,10,-1.76
COc1cc(-c2noc(CC(C)(C)C)n2)ccc1OCc1ccc(F)c(F)c1,-5,1.01
O=C(CN1CCC[C@H]1C1CCCC1)NCC1CCCCC1,43,-3.96
Cc1ccc(N2CCN(c3nc4c(c(N(C)C)n3)CN(C(=O)c3ccc(F)cc3)CC4)CC2)cc1,-8,1.6
COC(=O)C1C2CCCC2CN1Cc1nnc(C)o1 (configuration not stated),3,-0.4
CN(Cc1ccc(Br)cc1)Cn1nc([C@H]2CCS(=O)(=O)C2)oc1=S,-11,2.16
COc1ccccc1CNc1ncnc2sc(C(=O)N3CCCC[C@@H]3C)c(C)c12,-3,0.5
O=C(Nc1ccc(F)c(Cl)c1)C1=CCN(Cc2ccccc2F)CC1,1,-0.1

SMILES,% Inhibition [%],Z score
CCc1cnc(CNC(=O)Nc2ccnc(C3(C)CC3)n2)o1,-5,1.01
OC[C@@H]1CCN(c2cc(-c3ccccc3)nc3ccccc23)C[C@@H]1O,-10,2.07
O=C(c1[nH]nc2c1CCC2)N1CCN(c2ccc(F)cc2)CC1,-5,0.84
Cc1cc(NC(=O)c2cc(C3CC3)on2)no1,0,0.05
Nc1nc2cc(C(=O)N3CCN(c4cnccn4)CC3)ccc2s1,-1,0.1
CN(Cc1cc(Br)ccc1Cl)C(=O)CO,-2,0.25
CCOC(=O)c1cccc(NC(=O)CCc2[nH]c(C)c(C(=O)OCC)c2C)c1,0,0
CCc1ccc([C@@H]2CCCCCN2C(=O)CCc2ccncc2)o1,3,-0.34
COc1ccc(C2(CC(=O)N(C)C(C)c3nc(C)cs3)CC(=O)N(C)C2=O)cc1 (configuration not stated),9,-1.15
Cc1cc(O[C@H]2CCN(S(=O)(=O)c3ccc(F)c(Cl)c3)C2)nc(C)n1,8,-1.31
Cc1cc(CN2CC(C(N)=O)O[C@H](C)C2)c(OC(F)F)cc1C (some centres not stated),-12,1.51
CCOC(=O)[C@@H](NC(=O)Nc1ccccc1C(F)(F)F)C(F)(F)F,40,-5.22
O=C(c1noc2c1COCC2)N1CCCc2c(Br)c(F)cc(F)c21,-4,0.54
COC(C(=O)N1CC(C)(C)OC2(CCOC2)C1)c1cnn(C)c1 (configuration not stated),0,-0.03
Cc1cc(F)cc(CN2CCC3(CCC(=O)N(Cc4cccnc4)C3)CC2)c1,-11,2.19
Cc1c(-c2c(-c3ccccc3)ncn2Cc2ccno2)[nH]c2ccccc12,-6,0.89
O=C(Nc1ccccc1)N1CC(n2cnnc2[C@@H]2CCCO2)C1,-1,0.13
CC(C)OCC(=O)N[C@H]1CN(c2ccc(C#N)cn2)C[C@@H]1C1CC1,3,-0.47
C[C@H](Nc1cc(CCN)ncn1)c1cc(F)cc(F)c1,-11,1.1
COc1cccc2c1CCC2NC(c1ncc(C)s1)C1CC1 (configuration not stated),-9,0.84
CC(C)CN1CCN([C@H]2CCOC3(CCN(C(=O)Cc4cccnc4)CC3)C2)CC1,-16,3.11
O=C([C@@H]1CC[C@H](NS(=O)(=O)N2CCc3ccccc3C2)C1)N1CCOCC1,-5,0.9

SMILES,% Inhibition [%],Z score
O=C([C@@H]1CCCCN1S(=O)(=O)c1cc(F)cc(F)c1)N1CCOCC1,-6,1.08
Cc1nc2c([nH]1)CN(C[C@H](O)c1ccccc1)CC2,-12,1.19
Cc1cccc(N(C)S(=O)(=O)c2c(C)sc(C)c2-c2cc(C)no2)c1,-13,2.24
Cc1csc(N(CCc2ccccc2)C(=O)CC(C)(C)c2ccccc2)n1,-7,1.25
C[C@@]1(O)CCN(Cc2cccc(F)c2)[C@@H](c2cccs2)[C@@H]1NC(=O)C1CCCC1,-9,1.45
Cc1ncc(CNC(=O)C(=O)Nc2cccc(C#N)c2)s1,-2,0.33
Clc1ccc2nc(OCc3ccccc3Cl)c(N3CCOCC3)c(-c3ccccc3)c2c1,-1,0.14
O=C(c1cc2ccncc2s1)N1CCC[C@@]12CCOC2,0,-0.01
O=C(CCc1nnn2c1CN(S(=O)(=O)c1ccccc1)CC2)N1CCOCC1,-11,2.07
Cc1ccc2cc(C(=O)OCc3nccn3C)ccc2n1,-14,2.35
CNC(=O)[C@H]1CC[C@H](CNc2ncc(C)c(N(C)C)n2)CC1,4,-0.83
O=C([C@H]1C[C@@H]1c1ccccc1)N1CC(Oc2ccccc2)C1,-15,2.69
CCC1NC(=O)N(CCC2CCCCO2)C1=O (configuration not stated),-9,1.03
Cc1nc(CNC(=O)c2cccn2C)[nH]c1C,4,-0.78
Cc1cc(N[C@H]2CC[C@H](O)CC2)n2nc(C)cc2n1,-8,1.17
O=S1(=O)C[C@@H]2CC[C@@H](C2)N1Cc1noc(-c2cccs2)n1,1,-0.17
Cc1csc(C2(NC(=O)c3c[nH]c(C)cc3=O)CCCCCC2)n1,7,-0.56
CCS(=O)(=O)N1CCC[C@](CCOC)(c2noc(C)n2)C1,-10,1.6
COCCN(CC(N)=O)CC(=O)NCc1ccccc1F,36,-4.8
Cc1noc(C(F)(F)F)c1C(=O)NCC1(C2(O)CCC2)CC1,-10,1.69
CC[C@@H](C(=O)N1CCCN(c2nc3ccccc3c3nnc(-c4cccc(C)c4)n23)CC1)c1ccccc1,-12,1.53
CCCc1nnc(N2CCN(C3CC3)C(=O)C2)s1,4,-0.57

SMILES,% Inhibition [%],Z score
CC(N)C1CCCCN1C(=O)c1cccc2c1OCO2 (configuration not stated),-10,1.49
Cc1cccc2oc(CNC(=O)COCC(F)(F)C(F)F)nc12,-18,3.01
c1cc(C2(c3noc(-c4cc(C5CC5)on4)n3)CCC2)ccn1,-5,0.87
CC(=O)N(c1cccc(F)c1)C1CCCC1,34,-3.82
CC1CC(O)CN1c1ccc(C(N)=O)cn1 (configuration not stated),-7,1.19
CC(C)(C)OC(=O)NC[C@H]1CCN(C(=O)c2ccc3[nH]cnc3c2)C1,-11,2.09
Cc1csc2c(N3CC[C@H](N4CCCC4)C3)ncnc12,-6,0.93
Cc1nn(Cc2ccccc2Cl)c2nc(C3CCOCC3)[nH]c12,6,-1.25
Cc1noc(C)c1CCC(=O)N1CC(OCc2ccccc2)C1,-10,1.42
O=C(O)[C@@H]1CCCN1C(=O)COCc1ccccc1,-6,0.88
CCc1ccc(S(=O)(=O)Nc2cccc(-c3ccc(N4CCC(C)CC4)nn3)c2)cc1,-7,0.95
CCN1c2cc(C(=O)N3CCCCC3)ccc2C(=O)N2CCCCC[C@H]21,32,-4.56
CCOC(=O)c1cc(NC(=O)CN(C)C(C)C)c[nH]1,-12,1.78
CC(C)Oc1ccccc1CN1CCC[C@H](N(CCN2CCCCC2)S(C)(=O)=O)C1,-1,0.1
Cn1nnc2c1CCC(NC(=O)NC1CC(=O)N3CCCCC13)C2 (configuration not stated),-8,1.35
Cc1cc(C)cc(-n2nc(CC(N)=O)nc2-c2cc(=O)n(C)c(=O)n2C)c1,6,-1.11
COc1ccc(OC)c(NC(=O)CC(C)C2CCCNC2)c1 (configuration not stated),-1,0.16
Cc1csc(NC(=O)C2CCOCC2)n1,-9,1.77
N[C@@H](CNc1ncc(Cl)cc1Br)C1CC1,-3,0.46
CC(C)(C(=O)NC[C@H]1CCCC1(F)F)c1c[nH]cn1,0,-0.04
